In PMC3081989 (Biochemistry, 2010):

Experiments:
[1] = biological target: T1, human Retinoid X Receptor alpha-Ligand Binding Domain (hRXRα-LBD, T223–T462) homodimer (human, UniProt P19793 223-462); experiment: ITC
T1 sequence: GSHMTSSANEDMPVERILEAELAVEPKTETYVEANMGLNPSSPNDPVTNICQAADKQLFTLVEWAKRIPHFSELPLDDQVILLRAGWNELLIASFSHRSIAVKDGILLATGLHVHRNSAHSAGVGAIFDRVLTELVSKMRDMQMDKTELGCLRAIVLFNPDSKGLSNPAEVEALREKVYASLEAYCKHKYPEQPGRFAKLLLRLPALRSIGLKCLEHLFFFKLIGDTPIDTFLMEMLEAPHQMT

[2] = biological target: T1, human Retinoid X Receptor alpha-Ligand …; experiment: ITC; remark: listed apart in the source
[3] = biological target: T1, human Retinoid X Receptor alpha-Ligand …; experiment: ITC; remark: listed apart in the source
[4] = biological target: T1, human Retinoid X Receptor alpha-Ligand …; experiment: ITC; remark: listed apart in the source
[5] = biological target: T1, human Retinoid X Receptor alpha-Ligand …; experiment: far-UV CD titration

B1: 13-mer coactivator peptide derived from residues 686 to 698 of the glucocorticoid receptor interacting protein-1 (GRIP-1) (peptide)
peptide: KHKILHRLLQDSS
[1]
  Kd: 0.72 ± 0.01 µM
  dH: -46.57 ± 0.126 kJ/mol
  stoichiometry N: 0.95
[2]
  Kd: 0.47 ± 0.02 µM
  dH: -28.37 ± 0.0837 kJ/mol
  stoichiometry N: 0.98
[3]
  dH: -57.11 ± 0.167 kJ/mol
  stoichiometry N: 0.93
[4]
  Kd: 0.55 ± 0.02 µM
  dH: -38.28 ± 0.126 kJ/mol
  stoichiometry N: 0.92
[5]
  Kd: ~0.9 µM

Where two headings read alike, the source gives them in different places.
